Measured values: PubChem BioAssay AID651820 (National Center for Advancing Translational Sciences (NCATS), 2012)
Values joined by “and” are separate entries in the source; they are usually repeats but may differ in a detail not shown here. Equal entries are not always repeated. In all, about 340,000 compounds went through this assay and about 12,000 (3.5%) were called active. This list was built around the results that the source calls inconclusive (neither active nor inactive); the mix of calls is not that of the screen. Calls come from the whole dose curve; as a rule, active = well fitted inhibition curve with a large enough effect; inconclusive = small, poorly fitted or top-dose-only effect, or another doubt; inactive = no such curve, though single readings can be large or run the other way. Potencies of inconclusive entries are left out as doubtful fits.

assay: qHTS Assay for Inhibitors of Hepatitis C Virus (HCV); settings: Huh7.5.1 HCVcc-Cre (HCVcc is cell-culture hepatitis C virus) infection, luciferase reporter, 44 h; series mostly up to 41.8 µM
Outline: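 Cells seeded at 1,000/well and cultured 4 h, then compounds added followed by HCVcc-Cre virus (~0.5 moi). After 44 h further culture, luciferase substrate was added, plates held 15 min at room temperature, and luminescence read for 15 sec.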
Potency is the fitted concentration of half-maximal effect; tags give direction and shape of the fitted curve.

Structure (SMILES) | Potency
CCOC(=O)c1nnc(-c2ccc(C)cc2)nc1Sc1ccccc1Cl | inconclusive [inhibitor, single point]
Cc1ccc(C2=NS(=O)(=O)N(C)C(C(=O)Nc3ccc4c(c3)OCO4)=C2)cc1 | inconclusive [inhibitor, single point]
CC(C)n1nc(C(=O)Nc2nc3ccccc3[nH]2)c2ccccc2c1=O | inconclusive [inhibitor, partial curve]
CN1CCN(c2ccc(NC(=O)c3ccc([N+](=O)[O-])o3)cc2Cl)CC1 | active: 22.4 µM
COc1ccc(CCNC(=O)CCSc2nc(-c3ccco3)cc(C(F)(F)F)n2)cc1OC | active: 8.91 µM and active: 5.62 µM
Clc1ccc2nc(CSc3nnc4ccccn34)cn2c1 | inactive
COc1ccc(S(=O)(=O)N2CCN(C(=O)COc3ccc(C)c(C)c3)CC2)cc1OC | inconclusive [inhibitor, single point]
Clc1ccc(-c2nc3ccccn3c2CN2CCCCC2)cc1 | inactive
O=C(CCCCCNc1nc(=S)[nH]c2ccccc12)NCCc1ccccc1 | inconclusive [inhibitor, partial curve]
Cc1ccc(N2CCN(CCc3nc4cc(NS(C)(=O)=O)ccc4n3C)CC2)cc1 | inconclusive [inhibitor, single point]
O=C1c2ccc(-c3ccc(F)cc3OCc3ccccc3)cc2S(=O)(=O)c2cccc(C(=O)N3CCCC3)c21 | inconclusive [inhibitor, partial curve]
CCN(CC)C(=O)c1ccc(Nc2nnc(-c3ccc(O)cc3)c3ccccc23)cc1 | inconclusive [inhibitor, single point]
CCC(CC)C(=O)N1CC(=O)Nc2ccc(F)cc2C1c1ccc(F)cc1 (centres undefined) | inactive
N/C(=N\OC(=O)COc1ccc2ccccc2c1)c1ccccn1 | inactive
CCOc1cc2c(cc1OCC)-n1cccc1C(c1ccc(OC)c(OC)c1)NC2 (centres undefined) | inconclusive [inhibitor, single point]
CCc1ccc2c(CN3CCN(S(=O)(=O)c4ccc5c(c4)OCCO5)CC3)cc(=O)oc2c1 | inconclusive [inhibitor, partial curve]
C=CCNc1nc(C)c(CNc2c(C)cc(C)cc2C)nc1C#N | inactive
CCOc1cc(/C=N/N=C(/N)c2nonc2N)cc(Br)c1OCc1ccc(Cl)cc1 | inconclusive [inhibitor, full curve]
O=C(Nc1ccccc1C(=O)O)c1cccc(NC(=O)c2ccco2)c1 | inactive
